Data from PubChem BioAssay AID602179 (National Center for Advancing Translational Sciences (NCATS), 2012).
About 360 (0.092%) of roughly 390,000 compounds were called active. Inconclusive results, whose numbers are uncertain, are shown with a selection of clear calls. Calls come from the whole dose curve; as a rule, active = well fitted inhibition curve with a large enough effect; inconclusive = small, poorly fitted or top-dose-only effect; inactive = no such curve, though single readings can be large or run the other way. Potencies of inconclusive entries are doubtful fits and often do not repeat.

biological target: Isocitrate dehydrogenase [NADP] cytoplasmic (Homo sapiens) (UniProt O75874); experiment: qHTS for Inhibitors of mutant isocitrate dehydrogenase 1 (IDH1): qHTS; settings: IDH1-R132H enzyme, NADPH consumption, diaphorase/resazurin fluorescence; series mostly up to 76.6 µM; activity change, negative = inhibition: at the top concentration; note: nearly all actives have a fitted effect of over 65% in size
Method in brief: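 IDH1-R132H (0.5 ug/mL) preincubated 30 min with compound, then NADPH (0.016 mM) and alpha-KG (2 mM) added; 80 min at RT, pH 7.5. Remaining NADPH coupled via diaphorase/resazurin to fluorescence (540/590 nm); concentration-response curves normalized to no-enzyme control.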
% is set by controls: 0 for no effect and ±100 for the full control effect; potency is the fitted concentration of half-maximal effect; tags give direction and shape of the fitted curve.

| Structure (SMILES) | activity change, negative = inhibition | Potency |
| --- | --- | --- |
| CN(C)CCNc1ncnc2c1cnn2-c1cccc(Cl)c1 | inactive: -3.22% | – |
| Cc1ccc(S(=O)(=O)c2nnn3c2nc(NC(C)C)c2sccc23)cc1 | inactive: 36.8% | – |
| COc1ccc2c(c1)c(=Cc1ccc(N(C)C)cc1)c1cc(-c3ccccc3)[n+](C)n12 | – | inconclusive: 23.3 µM [inhibitor, partial curve] |
| Cn1c(Sc2ccccc2Cl)c(C=O)c2ccccc21 | inactive: 7.23% | – |
| Cc1cc(NC(=O)CCC(=O)N(c2cccc(F)c2)C(C(=O)NC2CCCC2)c2ccc(C)o2)no1 (stereo not drawn) | – | inconclusive: 39.8 µM [inhibitor, partial curve] |
| Cc1cc(C)c2oc(C(=O)Nc3ccc(S(=O)(=O)Nc4nccs4)cc3)cc(=O)c2c1 | – | inconclusive: 58.5 µM [inhibitor, single point] |
| Cc1ccc(S(=O)(=O)N2CCN(C(=O)/C=C/c3ccco3)CC2)cc1 | inactive: 3.97% | – |
| Cc1cccc(CSC2=CS(=O)(=O)c3ccccc3N2)c1 | inactive: -2.08% | – |
| CC(c1ccccc1)N(CCC(c1ccccc1)C1CCOC(C)(C)C1)C(=O)c1ccco1 (stereo not drawn) | – | inconclusive: 52.1 µM [inhibitor, single point] |
| Cc1ccccc1C(C(=O)NCc1ccco1)N(CC1CCCO1)C(=O)Cn1nnc2ccccc21 (stereo not drawn) | – | inconclusive: 58.5 µM [inhibitor, single point] |
| O=C1CC(Nc2cc(=O)[nH]c(=O)[nH]2)C(=O)N1c1ccccc1Cl (stereo not drawn) | – | inconclusive: 46.5 µM [inhibitor, partial curve, poor fit] |
| COCCCNC(=S)N1CCN(c2nc(-c3ccc(F)cc3)cs2)CC1 | inactive: 2.63% | – |
| Cc1cc(C)cc(OCCSc2nc(-c3ccc(C(C)(C)C)cc3)nc3cc(=O)[nH]n23)c1 | – | inconclusive: 15.8 µM [inhibitor, single point] |
| CC(CN(C)Cc1ccccc1)OC(=O)c1cccc(F)c1 (stereo not drawn) | inactive: 2.62% | – |
| O=S1OC(c2ccccc2)c2cc(Cl)ccc21 (stereo not drawn) | – | inconclusive: 50.1 µM [inhibitor, single point] |
| CS(=O)(=O)c1ccc(C(=O)OCc2nnc(-c3ccccc3)o2)cc1[N+](=O)[O-] | – | inconclusive: 13.1 µM [inhibitor, full curve] |
| CC(=O)Nc1cc(N=Cc2ccc(O)cc2O)c(Cl)cc1Cl | – | inconclusive: 46.5 µM [inhibitor, partial curve] |
| O=S(=O)(NCCc1nnc2ccc(SCc3c(F)cccc3Cl)nn12)c1ccccc1 | – | inconclusive: 44.7 µM [inhibitor, partial curve, poor fit] |
| Cc1ccc(NS(=O)(=O)c2ccc3[nH]c4c(c3c2)CCCCC4)cc1 | – | inconclusive: 50.1 µM [inhibitor, single point] |
| O=C(COc1cc(F)ccc1[N+](=O)[O-])N1N=C(c2cccs2)CC1c1ccco1 (stereo not drawn) | inactive: -14.2% | – |
| COc1cc(-c2noc(C)c2C#Cc2nccn2C)cc(OC)c1OC | – | inconclusive: 50.1 µM [inhibitor, single point] |
| Cc1cc(C)nc(N/N=C/C2=C(N3CCOCC3)C(=C/c3ccccc3)/CC2)n1 | – | active: 29.3 µM |

| Structure (SMILES) | activity change, negative = inhibition | Potency |
| --- | --- | --- |
| CC1CCCCC1NC(=O)COCc1cc(-c2cccs2)on1 (stereo not drawn) | inactive: 0% | – |
| C=C1CC2(OC1=O)c1ccccc1CCc1ccccc12 | – | inconclusive: 58.5 µM [inhibitor, single point] |
| CC(=O)c1ccc(NS(=O)(=O)c2ccc3[nH]c(=O)[nH]c3c2)cc1 | – | inconclusive: 50.1 µM [inhibitor, single point] |
| CCOc1ccccc1NC(=O)CN(c1cc(C)cc(C)c1)S(=O)(=O)c1c(C)nn(C)c1C | – | inconclusive: 50.1 µM [inhibitor, single point] |
| CCOc1ccc2nc(Cl)c(C3CC(c4ccccc4)=NN3C(=O)CCC(=O)O)cc2c1 (stereo not drawn) | – | inconclusive: 70.8 µM [inhibitor, single point] |
| CC(C)N(C(=O)CN1C(=O)C(=O)c2ccccc21)c1ccccc1 | – | inconclusive: 58.5 µM [inhibitor, single point] |
| Clc1cccc(CSc2ncnc3c2ncn3C2CCCCO2)c1 (stereo not drawn) | inactive: 2.67% | – |
| Nc1c(C(=O)O)sc2nc(-c3ccccc3)cc(-c3ccc(F)cc3)c12 | – | inconclusive: 52.1 µM [inhibitor, single point] |
| CS(=O)(=O)c1ccc(C(=O)OCC(=O)NC23CC4CC(CC(C4)C2)C3)cc1[N+](=O)[O-] | – | active: 31.6 µM |
| COc1ccc(/C=N/Nc2cc(N3CCOCC3)nc(C)n2)c(OC)c1 | – | inconclusive: 16.5 µM [inhibitor, full curve] |
| CCC(=O)C1=C(c2ccc(OC)c(OC)c2)N(C(=O)CC)n2c(CC)nnc2S1 | – | inconclusive: 44.7 µM [inhibitor, partial curve, poor fit] |
| O=C(NCCS(=O)(=O)N1CCN(c2ccc(F)cc2)CC1)c1cccc(C(F)(F)F)c1 | inactive: -8.35% | – |
| COC(=O)c1ccc2c(c1)C(C)(C)C(/C=C/c1ccc(O)cc1)=[N+]2C | – | inconclusive: 15.8 µM [inhibitor, full curve] |
| COC(=O)CNC(=O)N1CCN(S(=O)(=O)c2ccc3c(ccn3C)c2)CC1 | – | inconclusive: 50.1 µM [inhibitor, single point] |
| O=C(Nc1cc2ccc(O)cc2oc1=O)c1ccccc1 | – | inconclusive: 50.1 µM [inhibitor, single point] |
| Cc1ccc(-c2nc3ncccc3o2)cc1NC(=O)c1ccc([N+](=O)[O-])o1 | inactive: 4.79% | – |
| CCOc1ccccc1CNCc1c(C(=O)O)n(Cc2ccc(F)cc2)c2cc(C)ccc12 | – | inconclusive: 50.1 µM [inhibitor, single point] |
| O=c1[nH]c2ccc(Cl)cc2c(-c2ccccc2)c1N1CCOCC1 | – | inconclusive: 63.1 µM [inhibitor, single point] |
| Cc1nc2c(-c3ccccc3)c(C)nn2c(C)c1CCC(=O)Nc1ccccc1F | – | inconclusive: 44.7 µM [inhibitor, single point] |
| Cc1ccc(-n2cc3c(c2-c2ccccc2Br)c(=O)n(C)c(=O)n3C)cc1N | – | inconclusive: 39.8 µM [inhibitor, partial curve] |
| COc1cc(Br)cc(/C=N/N(CCO)C2=NS(=O)(=O)c3ccccc32)c1OC | – | active: 13.1 µM |
